Laboratory results: article PMC4336329 (PLoS ONE, 2015)
In all, about 310,000 compounds went through this assay and about 14,000 (4.5%) showed an effect of 50% or more. The effect is printed as a negative number. The list shows a part of the results.

target: human ether-à-go-go-related gene (hERG) potassium channel (human, UniProt Q12809); test: primary screen, population patch clamp on CHO cells stably expressing hERG
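Note: peak tail current of the secondary pulse compared with the same well before compound.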

Sequence of human ether-à-go-go-related gene (hERG) potassium channel (Q12809 whole entry, looked up): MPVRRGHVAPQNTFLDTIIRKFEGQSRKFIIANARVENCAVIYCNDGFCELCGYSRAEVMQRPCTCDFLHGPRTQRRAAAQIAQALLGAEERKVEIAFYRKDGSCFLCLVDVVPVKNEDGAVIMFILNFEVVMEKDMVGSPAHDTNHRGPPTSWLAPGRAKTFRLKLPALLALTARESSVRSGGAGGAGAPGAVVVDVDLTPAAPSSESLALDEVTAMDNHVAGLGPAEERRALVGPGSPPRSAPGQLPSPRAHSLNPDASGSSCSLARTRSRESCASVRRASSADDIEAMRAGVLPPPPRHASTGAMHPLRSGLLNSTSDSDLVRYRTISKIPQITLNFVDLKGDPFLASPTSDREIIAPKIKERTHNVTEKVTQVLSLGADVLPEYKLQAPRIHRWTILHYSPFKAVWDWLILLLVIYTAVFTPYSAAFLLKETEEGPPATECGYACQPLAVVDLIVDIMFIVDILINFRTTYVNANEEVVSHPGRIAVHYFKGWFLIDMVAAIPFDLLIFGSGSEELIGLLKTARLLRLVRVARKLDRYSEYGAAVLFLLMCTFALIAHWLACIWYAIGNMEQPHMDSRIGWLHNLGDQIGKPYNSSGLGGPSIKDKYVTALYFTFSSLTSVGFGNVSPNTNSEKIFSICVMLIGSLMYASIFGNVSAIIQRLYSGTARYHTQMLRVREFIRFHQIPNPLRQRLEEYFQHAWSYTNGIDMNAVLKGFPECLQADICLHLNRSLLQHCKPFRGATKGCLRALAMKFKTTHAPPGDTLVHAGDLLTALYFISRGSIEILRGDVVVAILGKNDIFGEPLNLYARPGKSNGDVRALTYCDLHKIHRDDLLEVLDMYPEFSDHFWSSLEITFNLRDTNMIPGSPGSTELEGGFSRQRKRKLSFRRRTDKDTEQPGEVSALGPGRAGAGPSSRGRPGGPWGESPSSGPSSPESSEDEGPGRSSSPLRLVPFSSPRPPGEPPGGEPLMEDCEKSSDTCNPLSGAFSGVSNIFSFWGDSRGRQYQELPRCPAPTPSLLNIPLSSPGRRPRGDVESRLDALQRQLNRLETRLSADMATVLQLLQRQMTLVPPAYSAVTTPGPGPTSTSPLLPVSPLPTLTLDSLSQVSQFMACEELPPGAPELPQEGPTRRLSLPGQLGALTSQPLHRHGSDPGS

SMILES	hERG current change (%, negative = inhibition) at 10uM
CN(C)c1nc(Cl)cc(N2CCOCC2)n1	7.67%
C=CCn1cnc2c(c1=O)c1nc3ccccc3nc1n2/N=C/c1cccc(OC)c1OC	-9.74%
Cc1ccc(OCc2nc(C#N)c(N3CCCC3)o2)cc1	-62.8%
O=C(NC1CCCCC1)C(c1cccnc1)N(C(=O)CCl)c1ccccc1Cl (stereo not shown)	-4.55%
COC(=O)c1cc(Br)c(=O)n(CCN2CCCC2)c1	4.7%
CCCC(=O)N(Cc1cc(=O)[nH]c2ccccc12)c1ccccc1C	10.2%
Oc1ccccc1N=Cc1c(O)ccc2oc3c(c12)CCCC3	18.1%
CC(C)CCOc1ccc(C(=O)N2CCN(c3ncccn3)CC2)cc1	-9.05%
O=C1NC2(CCCCC2)C(=O)N1CCN1C(=O)c2ccccc2C1=O	31.2%
O=C(Oc1ccccc1-c1csnn1)c1cccs1	17.7%
CC(NC(=O)CCNC(=O)c1ccccc1Cl)c1ccc(-n2ccnc2)cc1 (stereo not shown)	-17.8%
COc1ccc(OC)c(NC(=O)C2CCCN2S(=O)(=O)c2cccc3nsnc23)c1 (stereo not shown)	-8.13%
Cc1ccc(-c2nnc(SCC(C)C)n2C)cc1	-8.23%
NC(=O)c1ccsc1NC(=O)COC(=O)c1cc(=O)[nH]c2ccccc12	9.1%
CSc1ccc(/C=N/N(C)S(=O)(=O)c2ccc(C)cc2)cc1	11.3%
Cc1ccc2nc(SCC(=O)NC3CCCc4ccccc43)[nH]c2c1 (stereo not shown)	5.68%
O=C(COc1ccccc1)Nc1cc(NC(=O)COc2ccccc2)cc(C(=O)O)c1	20.9%
NC(=O)C1CCN(c2oc(/C=C/c3ccccc3)nc2S(=O)(=O)c2ccccc2)CC1	-2.67%
CCC(C(=O)OC)n1cnc2c(nnn2-c2ccc(F)cc2)c1=O (stereo not shown)	-14.2%
CCOC(=O)Cn1nnc2c(sc3nc4c(c(-c5ccccc5)c32)CCC4)c1=O	13.1%
COc1ccc(C/C(N)=N/OC(=O)C(c2ccccc2)c2ccccc2)cc1OC	-14.5%
Cc1cc(NC(=O)CCN2C(=O)/C(=C\c3ccccc3)SC2=S)no1	4.42%

SMILES	hERG current change (%, negative = inhibition) at 10uM
CC1=C/C(=N\OS(=O)(=O)c2ccccc2)C=CC1=O	-1.66%
CCC(=O)Nc1sc(Cc2ccc3c(c2)OCO3)c(C)c1C(N)=O	1.04%
O=C1N2CN(C(c3ccccc3)c3ccccc3)CN=C2SC1(CO)CO	6.01%
CC(C)CNC(=S)N(CCN(C)C)Cc1cc2cc3c(cc2[nH]c1=O)OCO3	0.354%
COC(=O)C1=C(c2ccccc2OCc2ccccc2)C[C@@H]2CC[C@H]1N2C(=O)NCCCOC(C)C	-12.9%
O=C(O)C(=O)O.O=S(=O)(c1ccc(Cl)cc1)N1CCN(Cc2ccncc2)CC1	-51.5%
CN1C(=O)N(C)C(NC(=O)Nc2ccccc2)C1NC(=O)Nc1ccccc1 (stereo not shown)	9.28%
OCCOc1ccccc1	12.4%
CCOC(=O)N1CCN(C(=O)C(CC)c2ccccc2)CC1 (stereo not shown)	5.57%
C=CCNC(=S)/C(=C(/[O-])c1ccc([N+](=O)[O-])cc1)[n+]1ccccc1	4.73%
COC(=O)c1ccc(-n2nnnc2SCc2nn[nH]n2)cc1	16.4%
Cc1ccc(NC(=O)C2CCN(S(=O)(=O)c3ccc4c(c3)CCCC(=O)N4)CC2)cc1N(C)C	-14.7%
Cc1cc(C(=O)N2CCOCC2)ccc1[N+](=O)[O-]	9.19%
COc1cccc(-c2csc(NC(=O)C3CC3)n2)c1	8.08%
O=C(NNC(=O)C1CC1c1ccccc1)Nc1cccc(Cl)c1 (stereo not shown)	8.67%
CCN1CCN(C(=O)c2ccccc2N(C)S(=O)(=O)c2ccc(C)cc2)CC1	2.03%
CCc1cccc(OCCCCNCCCOC)c1.O=C(O)C(=O)O	-19.4%
CCNC(=S)Nc1ccc(Cl)c(C(F)(F)F)c1	-17.1%
Cc1ccc(S(=O)(=O)N(C)CCCC(=O)Nc2cccc3ccccc23)cc1	-28.1%
Cc1c(C(=O)NCc2ccccn2)oc2ccc(Br)cc12	-12%
O=C(O)c1ccccc1OC(C(=O)Nc1cc(Cl)cc(Cl)c1)c1ccccc1 (stereo not shown)	13.5%
CC(C)NC(=O)CN(C(=O)CCC(=O)Nc1nccs1)c1ccc2c(c1)OCO2	7.86%

SMILES	hERG current change (%, negative = inhibition) at 10uM
COc1ccc(-n2nnnc2CNC(=O)c2ccc(S(=O)(=O)N3CCOCC3)cc2)cc1	-11.2%
Cc1ccc(/C=N/Nc2cn[nH]c(=O)n2)o1	-4.58%
COc1ccccc1C(=O)NCCC(=O)N(Cc1ccco1)Cc1cccs1	-21.3%
Cc1nc2cc(NC(=O)c3ccc(Cl)cc3)ccc2n1C	-18%
CCC(C)(C)NC(=O)CN(C(=O)CCC(=O)Nc1ccccn1)c1ccc2c(c1)OCO2	-9.65%
COc1ccc(C2C3=C(CC(C)(C)CC3=O)Nc3nc(C)nn32)cc1OC (stereo not shown)	9.84%
CCOCCCn1c(SCc2nc3sc(C(=O)O)c(C)c3c(=O)[nH]2)nnc1-c1ccc(Cl)cc1	25.3%
CC1Cc2cc(S(=O)(=O)NCCc3ccccc3)ccc2N1C(=O)C1CC1 (stereo not shown)	13.7%
Cc1ccccc1CN1C(=O)C2(OCCCO2)c2ccccc21	-10.5%
CN(C)c1ccc(C(=O)Nc2ccc(O)c3c(=O)cc(-c4ccccc4Cl)oc23)cc1	-7.97%
CC(C(=O)O)n1cc(Cl)cn1 (stereo not shown)	8.82%
NS(=O)(=O)c1ccc(NC(=O)/C=C/c2ccccc2Cl)cc1	9.54%
N/C(=N\OC(=O)N1c2ccccc2Sc2ccccc21)c1ccccc1	23%
CCOc1ccc(NS(=O)(=O)c2ccc3c(c2)CCN3C(=O)CCC(=O)O)cc1	11.5%
CSc1nc(C)c(CCOCc2ccccc2)c(=O)[nH]1	15.7%
Cc1ccc(-c2ccccc2)n1-c1cccc(C(=O)O)c1	13.8%
O=C(C1CC1)N1CCc2cc(S(=O)(=O)NCCCN3CCCCC3)ccc21	1.2%
NC(=O)CSc1nnc2ccc(-c3ccc(F)cc3)nn12	8.58%
S=C(NCCc1ccccc1)N/N=C/c1cccs1	19.9%
Nn1c(SCc2nc3ccccc3[nH]2)nnc1-c1ccccc1	2.24%
Cc1ccc(Cl)cc1NC(=S)N(CCCN1CCOCC1)Cc1ccco1	-28.5%
CCc1ccc(NC(=O)CSc2nc3ccccc3c(=O)n2CCCC(=O)NCCCN2CCOCC2)cc1	-66.6%

SMILES	hERG current change (%, negative = inhibition) at 10uM
CC(C)Oc1ccc(CN=C(N)N=C(N)N)cc1Cl	7.53%
Nc1nc(SCC(=O)Nc2ccccc2)[nH]c(=O)c1-c1ccccc1	-0.842%
COc1ccc(CCN2CN(S(=O)(=O)c3ccc(OC)cc3)c3nc4ccccc4nc32)cc1	-16.1%
C#Cc1cccc(NC(=O)CSc2nnc(-c3ccc(C(F)(F)F)cn3)o2)c1	12.7%
CCOC(=O)Cc1c(C)nc2c(-c3ccccc3OC)c(C)nn2c1C	-22.7%
CCN(C(=O)COC(=O)c1cccnc1SC)C1CCS(=O)(=O)C1 (stereo not shown)	11.7%
O=C(/C=C/c1ccccc1[N+](=O)[O-])c1ccccc1Br	7.57%
O=C(NCCc1ccccc1)c1ccc(-n2cnnn2)cc1	-4.78%
COc1ccc(CN2C3CCCC2CC(NC(=O)Nc2cccc(C)c2)C3)cc1 (stereo not shown)	-75.3%
CC1CN(C(=O)COC(=O)c2nn(-c3ccccc3)c(=O)c3ccccc23)CC(C)O1 (stereo not shown)	9.9%
COC(=O)Nc1ccc(S(=O)(=O)N2CCCC(C(=O)NC3CCS(=O)(=O)C3)C2)cc1 (stereo not shown)	8.07%
C/C(=N\NC(=O)c1ccc(C)cc1)c1c(C)[nH]n(-c2ccccc2)c1=O	14.2%
O=C(Cn1c(C(=O)NCCCN2CCOCC2)cc2sccc21)c1ccccc1	-16.5%
O=C(Cn1c(-c2cncs2)nc2ccccc21)NC1CCCC1	-13.2%
COCCn1c(C)c(C(=O)O)sc1=S	-4.77%
CNC(=S)NC1CC2CCCC(C1)N2Cc1ccccc1OC (stereo not shown)	-10.1%
COc1cc(C(C(=O)NC(C)(C)C)N(Cc2ccc3c(c2)OCO3)C(=O)c2cnccn2)cc(OC)c1OC (stereo not shown)	-1.73%
CS(=O)(=O)N(CC(O)Cn1c2ccccc2c2ccccc21)c1ccccc1 (stereo not shown)	6.78%
Cc1sc(NC(=O)CCCC(=O)O)c(C#N)c1C	5.89%
CCC(=Nc1ccc(OC)cc1OC)c1c(O)[nH]c(=O)[nH]c1=O	0.405%
COc1ccccc1OCCC(=O)Nc1cccc(S(=O)(=O)N2CCCCC2)c1	-19.2%
O=C1N(c2ccccc2)C2CS(=O)(=O)CC2N1c1ccc(Br)cc1 (stereo not shown)	-29.3%
